Screen size: about 310,000 compounds; about 2,200 (0.71%) showed an effect of 50% or more. The effect is printed as a negative number. The list shows a part of the results.
What follows are molecules tested against human ether-à-go-go-related gene (hERG) potassium channel (human, UniProt Q12809) (assay: primary screen, population patch clamp on CHO cells stably expressing hERG).
Chain of human ether-à-go-go-related gene (hERG) potassium channel (Q12809 whole entry, looked up): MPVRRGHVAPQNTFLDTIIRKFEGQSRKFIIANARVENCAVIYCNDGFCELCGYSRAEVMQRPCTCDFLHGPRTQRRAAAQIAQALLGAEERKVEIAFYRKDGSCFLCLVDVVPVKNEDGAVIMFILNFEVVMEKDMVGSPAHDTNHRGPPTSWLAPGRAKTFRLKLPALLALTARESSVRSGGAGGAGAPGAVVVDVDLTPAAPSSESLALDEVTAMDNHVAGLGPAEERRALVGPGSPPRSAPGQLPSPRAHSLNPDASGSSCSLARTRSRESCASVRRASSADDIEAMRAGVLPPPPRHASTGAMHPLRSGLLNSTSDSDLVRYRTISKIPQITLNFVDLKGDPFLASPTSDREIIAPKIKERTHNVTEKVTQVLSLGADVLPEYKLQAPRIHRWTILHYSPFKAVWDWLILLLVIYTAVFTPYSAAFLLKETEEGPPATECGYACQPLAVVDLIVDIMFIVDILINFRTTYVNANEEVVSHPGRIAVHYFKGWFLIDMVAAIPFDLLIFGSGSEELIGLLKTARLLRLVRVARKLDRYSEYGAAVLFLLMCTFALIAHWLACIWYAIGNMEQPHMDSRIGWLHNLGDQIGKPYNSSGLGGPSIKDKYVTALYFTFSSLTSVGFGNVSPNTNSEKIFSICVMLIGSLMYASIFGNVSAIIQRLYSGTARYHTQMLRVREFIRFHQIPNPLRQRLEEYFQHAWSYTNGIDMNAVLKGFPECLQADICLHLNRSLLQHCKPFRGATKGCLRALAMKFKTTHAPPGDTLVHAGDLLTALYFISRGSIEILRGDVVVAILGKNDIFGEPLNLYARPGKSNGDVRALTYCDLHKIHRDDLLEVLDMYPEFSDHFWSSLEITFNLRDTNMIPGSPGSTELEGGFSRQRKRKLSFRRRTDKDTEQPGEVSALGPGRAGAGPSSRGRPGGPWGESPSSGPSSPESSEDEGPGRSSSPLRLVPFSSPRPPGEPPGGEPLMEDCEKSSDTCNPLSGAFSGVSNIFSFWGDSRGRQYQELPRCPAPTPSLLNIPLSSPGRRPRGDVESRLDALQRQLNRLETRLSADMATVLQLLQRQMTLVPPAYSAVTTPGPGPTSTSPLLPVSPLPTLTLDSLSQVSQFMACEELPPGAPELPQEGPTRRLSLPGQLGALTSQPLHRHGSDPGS

SMILES	hERG current change (%, negative = inhibition) at 1uM [%]
Oc1cccc(-c2nc3ccccc3s2)c1	1.25
COC(=O)c1sccc1N/N=C/c1cccc(Oc2ccccc2)c1	5.22
O=C(NCCN1CCOCC1)c1ccc([N+](=O)[O-])cc1[N+](=O)[O-]	6.46
Cc1cc(Nc2cccc(Br)c2)c2ccccc2n1	-33
Clc1ccc(-c2cn(-c3ccc(Cl)cc3)c3[n+]2CCCCC3)cc1.[Br-]	-7.83
O=C(c1ccccc1)n1c(=O)cc[nH]c1=O	8.36
O=C1NCCCC1C(=O)N/N=C/c1ccccc1O (stereo not drawn)	7.09
COc1ccc(Cl)cc1NC(=O)CSc1nnc(COc2ccccc2)n1N	9.93
CCCCN1C(=S)NC[C@@H]1Cc1cccc2ccccc12	10.2
N#CC1=C(N)Oc2nc(-c3ccccc3)[nH]c2C1c1cccnc1 (stereo not drawn)	10.6
O=C(c1ccc(Cl)cc1[N+](=O)[O-])N1CCc2ccccc2C1	14.1
CN(C1CCCCC1)C(CNS(=O)(=O)c1ccc(Cl)cc1)c1ccccc1 (stereo not drawn)	8.84
CC1(c2ccc3c(c2)OCO3)NC(=O)N(CC(=O)Nc2ccc(N3CCOCC3)cc2)C1=O (stereo not drawn)	5.38
Cc1ccccc1-c1oc(C)c(C)[n+]1[O-].Cl	2.03
COc1ccc(/C=N/Nc2nc(-c3cccc(S(=O)(=O)N4CCCC4)c3)cs2)c(OC)c1	-0.714
O=C(Nc1cccc(C(=O)O)c1)/C(=C\c1ccc2c(c1)OCO2)NC(=O)c1ccco1	15.1
Oc1csc(Cc2nc(-c3ccccc3F)cs2)n1	6.96
CCSc1nnc(-c2ccccc2NC(C)=O)c(=O)[nH]1	-2.84
Cc1ccc(CNC(=O)c2cccc(S(C)(=O)=O)c2)cc1	9.64
CCOc1ccc(N(C(=O)c2cc3ccccc3oc2=O)C2C=CS(=O)(=O)C2)cc1 (stereo not drawn)	3.47
CCCCNC(=O)c1onc(CSc2ccc(F)cc2)c1C(=O)O	0.942
O=C(O)c1cnn(-c2nc(-c3ccc(Cl)c(Cl)c3)cs2)c1C(F)(F)F	2.76
CCCC1S/C(=N/N=C/c2ccc(C)cc2)N(Cc2ccc(OC)cc2)C1=O (stereo not drawn)	12.6

SMILES	hERG current change (%, negative = inhibition) at 1uM [%]
CCC(=O)Nc1nc(C)c(C(=O)Nc2cccc(Cl)c2)s1	9.35
COc1ccc(N(CC(=O)Nc2cccnc2)S(=O)(=O)c2ccccc2)cc1OC	5.64
COc1ccc(S(=O)(=O)N2CCOC23CCN(S(=O)(=O)c2cc(C)ccc2C)CC3)cc1	4.96
CCn1cc(C(=O)NCC2CCCO2)c(=O)c2cc(S(=O)(=O)N(C)C3CCCCC3)ccc21 (stereo not drawn)	-6.71
CN(CC(=O)N1CCc2ccccc21)S(=O)(=O)c1cccc2cccnc12	0.0796
COc1ccc(C2C(C#N)=C(N)Oc3c2oc(CO)cc3=O)cc1 (stereo not drawn)	3.37
C=CCn1c(P(C)(=O)[O-])nc2ccccc21.[K+]	13.7
CC1(C)CSC(=NCc2ccccc2)N1	15
COc1ccccc1-c1nc(SCc2ccccn2)n[nH]1	-0.379
CC[C@H](C)[C@H](NC(N)=O)C(=O)Nc1ccc(NC(C)=O)cc1	12.1
O=C(O)CCn1c(=O)sc2ccccc21	7.42
COc1ccc(/C=N/Nc2nnc(C)n2N)cc1OC(C)=O.Cl	11.9
COc1ccccc1N1CCN(c2ccc([N+](=O)[O-])cc2Cl)CC1	12.1
Cc1onc(-c2ccccc2)c1C(=O)Nc1ccon1	4.32
CCCCCSc1nnc(-c2ccccc2NC(C)=O)c(=O)[nH]1	16.2
Cc1ccc(OCC(=O)N(Cc2ccccc2)C(C)C)c([N+](=O)[O-])n1	-0.696
COc1cccc(OC)c1C(=O)Nc1ccncc1	17.4
Cc1ccc(C)c(COc2coc(CN3CCN(C(=O)c4ccco4)CC3)cc2=O)c1	-95.9
COc1cc(C(=O)OCCN2CCOCC2)cc(OC)c1OC	3.45
CC1CC2=C(C(=O)O1)C(c1ccc(Cl)cc1)Nc1ccccc1N2 (stereo not drawn)	1.41
COc1ccc(S(=O)(=O)NC(CC(=O)NCCc2ccc(OC)c(OC)c2)C(C)C)cc1 (stereo not drawn)	9.55
CCCCCCNc1nc(Cl)nc(NC(C)(C)CO)n1	16.6

Reference: publication PMC4336329 (PLoS ONE, 2015)
